Measurements as given in the supplement of paper PMC4604168 (melanoma cell lines).
The other results are listed elsewhere or left out. Repeats are few or missing, and single values can be far off.

test system: A2058; experiment: cell count relative to DMSO control; melanoma cells; higher = more viable cells; details: library dose: standard library concentration; 72 h
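Also: cells treated in 1,536-well plates, then fixed and DAPI-stained, with nuclei counted from automated high-throughput microscope images.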

Row | SMILES | cell count [%]
1 | O=c1[nH]nc(Sc2ncc([N+](=O)[O-])s2)n1-c1ccc2c(c1)OCCO2 + C[C@]1(O)C[C@@H](c2nc(-c3ccc4ccc(-c5ccccc5)nc4c3)c3c(N)nccn32)C1 [OSI906] (first compound 1 µM, partner dose 2 µM) | 136
2 | COc1cc(Nc2ncc(F)c(Nc3ccc4c(n3)NC(=O)C(C)(C)O4)n2)cc(OC)c1OC [Tamatinib] + Cc1ccc(NC(=O)c2cccc(N(C)C)c2)cc1NC(=O)c1ccc(O)cc1 [ZM336372] (first compound 2 µM, partner dose 10 µM) | 69.7
3 | O=c1[nH]nc(Sc2ncc([N+](=O)[O-])s2)n1-c1ccc2c(c1)OCCO2 + C[C@]1(c2nc3c(C(N)=O)cccc3[nH]2)CCCN1 [Veliparib] (first compound 1 µM, partner dose 7 µM) | 78

test system: A375; experiment: as above; details: library dose: standard library concentration; 72 h

Row | SMILES | cell count [%]
4 | O=c1[nH]nc(Sc2ncc([N+](=O)[O-])s2)n1-c1ccc2c(c1)OCCO2 + Cc1nc(Nc2ncc(C(=O)Nc3c(C)cccc3Cl)s2)cc(N2CCN(CCO)CC2)n1 [dasatanib] (first compound 1 µM, partner dose 0.02 µM) | 77.3
5 | O=C(O)c1ccc(-c2c[nH]c3ncc(-c4ccccc4)cc23)cc1C1CCCC1 + O=S(=O)(c1ccccc1)N(CC(F)(F)F)c1ccc(C(O)(C(F)(F)F)C(F)(F)F)cc1 [T0901317] (first compound 0.8 µM, partner dose 7 µM) | 75.5
6 | Cn1cncc1[C@@](N)(c1ccc(Cl)cc1)c1ccc2c(c1)c(-c1cccc(Cl)c1)cc(=O)n2C [tipifarnib] + CN(NC(=O)CC(=O)NN(C)C(=S)c1ccccc1)C(=S)c1ccccc1 [STA4783] (first compound 0.05 µM, partner dose 0.03 µM) | 112
7 | O=c1[nH]nc(Sc2ncc([N+](=O)[O-])s2)n1-c1ccc2c(c1)OCCO2 + COc1ccc(-c2ccc3c(N4CCOCC4)nc(N4C[C@@H](C)O[C@@H](C)C4)nc3n2)cc1CO [KU0063794] (first compound 1 µM, partner dose 0.1 µM) | 87.2
8 | Cn1cncc1[C@@](N)(c1ccc(Cl)cc1)c1ccc2c(c1)c(-c1cccc(Cl)c1)cc(=O)n2C [tipifarnib] + CN(C)S(=O)(=O)c1ccc2c(c1)/C(=C/c1cc3c([nH]1)CCCC3)C(=O)N2 [SU6656] (first compound 0.05 µM, partner dose 2 µM) | 87.4
9 | O=C(Nc1cccc(Cl)c1)Nc1ncc(CCNc2ncnc3ccsc23)s1 + O=C(O)c1ccc(-c2c[nH]c3ncc(-c4ccccc4)cc23)cc1C1CCCC1 [GSK650394] (first compound 0.004 µM, partner dose 0.8 µM) | 81.3
10 | O=c1[nH]nc(Sc2ncc([N+](=O)[O-])s2)n1-c1ccc2c(c1)OCCO2 + C#Cc1cccc(Nc2ncnc3cc(OCCOC)c(OCCOC)cc23)c1 [erlotinib] (first compound 1 µM, partner dose 4 µM) | 101
11 | O=c1[nH]nc(Sc2ncc([N+](=O)[O-])s2)n1-c1ccc2c(c1)OCCO2 + C[C@@H](N)c1ccc(C(=O)Nc2ccnc3[nH]ccc23)cc1 [RKI983] (first compound 1 µM, partner dose 2 µM) | 85.1
12 | COc1cc(Nc2ncc(F)c(Nc3ccc4c(n3)NC(=O)C(C)(C)O4)n2)cc(OC)c1OC [Tamatinib] + CC(C)(C)c1cnc(CSc2cnc(NC(=O)C3CCNCC3)s2)o1 [SNS-032] (first compound 2 µM, partner dose 0.05 µM) | 91.3
13 | O=c1[nH]nc(Sc2ncc([N+](=O)[O-])s2)n1-c1ccc2c(c1)OCCO2 + NCC(=O)Nc1ccc(-n2nc(C(F)(F)F)cc2-c2ccc3c(ccc4ccccc43)c2)cc1 [OSU03012] (first compound 1 µM, partner dose 5 µM) | 64.7
14 | O=c1[nH]nc(Sc2ncc([N+](=O)[O-])s2)n1-c1ccc2c(c1)OCCO2 + CN(NC(=O)CC(=O)NN(C)C(=S)c1ccccc1)C(=S)c1ccccc1 [STA4783] (first compound 1 µM, partner dose 0.03 µM) | 113
15 | C[C@@H]1CCN(C(=O)CC#N)C[C@@H]1N(C)c1ncnc2[nH]ccc12 + O=C(Nc1ccccc1)c1cc([N+](=O)[O-])ccc1Cl [GW9662] (first compound 5 µM, partner dose 10 µM) | 134
16 | O=c1[nH]nc(Sc2ncc([N+](=O)[O-])s2)n1-c1ccc2c(c1)OCCO2 + NC1(c2ccc(-c3nc4ccn5c(=O)[nH]nc5c4cc3-c3ccccc3)cc2)CCC1 [MK2206] (first compound 1 µM, partner dose 2 µM) | 88
17 | C[C@@H]1CCN(C(=O)CC#N)C[C@@H]1N(C)c1ncnc2[nH]ccc12 + O=C(O)c1ccc(-c2c[nH]c3ncc(-c4ccccc4)cc23)cc1C1CCCC1 [GSK650394] (first compound 5 µM, partner dose 0.8 µM) | 96.6
18 | CC1(C)NC(=O)N(c2ccc([N+](=O)[O-])c(C(F)(F)F)c2)C1=O [nilutamide] + O=C(O)c1ccc(-c2c[nH]c3ncc(-c4ccccc4)cc23)cc1C1CCCC1 [GSK650394] (first compound 5 µM, partner dose 0.8 µM) | 90.2
19 | O=c1[nH]nc(Sc2ncc([N+](=O)[O-])s2)n1-c1ccc2c(c1)OCCO2 + O=C(/C=C/c1cccnc1)NCCCCC1CCN(C(=O)c2ccccc2)CC1 [FK866] (first compound 1 µM, partner dose 0.05 µM) | 104
20 | O=c1[nH]nc(Sc2ncc([N+](=O)[O-])s2)n1-c1ccc2c(c1)OCCO2 + CC1(C)NC(=O)N(c2ccc([N+](=O)[O-])c(C(F)(F)F)c2)C1=O [nilutamide] (first compound 1 µM, partner dose 5 µM) | 52.1
21 | O=c1[nH]nc(Sc2ncc([N+](=O)[O-])s2)n1-c1ccc2c(c1)OCCO2 + C=CCn1c(=O)c2cnc(Nc3ccc(N4CCN(C)CC4)cc3)nc2n1-c1cccc(C(C)(C)O)n1 [MK1775] (first compound 1 µM, partner dose 0.1 µM) | 69.7
22 | O=c1[nH]nc(Sc2ncc([N+](=O)[O-])s2)n1-c1ccc2c(c1)OCCO2 + Cn1cncc1[C@@](N)(c1ccc(Cl)cc1)c1ccc2c(c1)c(-c1cccc(Cl)c1)cc(=O)n2C [tipifarnib] (first compound 1 µM, partner dose 0.05 µM) | 88.3
23 | CC1(C)NC(=O)N(c2ccc([N+](=O)[O-])c(C(F)(F)F)c2)C1=O [nilutamide] + C=CCn1c(=O)c2cnc(Nc3ccc(N4CCN(C)CC4)cc3)nc2n1-c1cccc(C(C)(C)O)n1 [MK1775] (first compound 5 µM, partner dose 0.1 µM) | 57.5
24 | COc1cc(Nc2ncc(F)c(Nc3ccc4c(n3)NC(=O)C(C)(C)O4)n2)cc(OC)c1OC [Tamatinib] + C=CCn1c(=O)c2cnc(Nc3ccc(N4CCN(C)CC4)cc3)nc2n1-c1cccc(C(C)(C)O)n1 [MK1775] (first compound 2 µM, partner dose 0.1 µM) | 77.7
25 | COc1cc(Nc2ncc(F)c(Nc3ccc4c(n3)NC(=O)C(C)(C)O4)n2)cc(OC)c1OC [Tamatinib] + O=C(Nc1cccc(Cl)c1)Nc1ncc(CCNc2ncnc3ccsc23)s1 [SNS314] (first compound 2 µM, partner dose 0.004 µM) | 88.1
26 | O=c1[nH]nc(Sc2ncc([N+](=O)[O-])s2)n1-c1ccc2c(c1)OCCO2 + COc1ccc(C2=N[C@@H](c3ccc(Cl)cc3)[C@@H](c3ccc(Cl)cc3)N2C(=O)N2CCNC(=O)C2)c(OC(C)C)c1 [Nutlin-3] (first compound 1 µM, partner dose 0.5 µM) | 81.4
27 | O=C(O)c1ccc(-c2c[nH]c3ncc(-c4ccccc4)cc23)cc1C1CCCC1 + NCC(=O)Nc1ccc(-n2nc(C(F)(F)F)cc2-c2ccc3c(ccc4ccccc43)c2)cc1 [OSU03012] (first compound 0.8 µM, partner dose 5 µM) | 63
28 | C[C@@H]1CCN(C(=O)CC#N)C[C@@H]1N(C)c1ncnc2[nH]ccc12 + COc1cc2ncnc(Nc3ccc(Oc4ccccc4)cc3)c2cc1OC [SrcI1] (first compound 5 µM, partner dose 10 µM) | 150
29 | COc1cc(Nc2ncc(F)c(Nc3ccc4c(n3)NC(=O)C(C)(C)O4)n2)cc(OC)c1OC [Tamatinib] + NCC(=O)Nc1ccc(-n2nc(C(F)(F)F)cc2-c2ccc3c(ccc4ccccc43)c2)cc1 [OSU03012] (first compound 2 µM, partner dose 5 µM) | 80.6
30 | CC1(C)NC(=O)N(c2ccc([N+](=O)[O-])c(C(F)(F)F)c2)C1=O [nilutamide] + CN(C)S(=O)(=O)c1ccc2c(c1)/C(=C/c1cc3c([nH]1)CCCC3)C(=O)N2 [SU6656] (first compound 5 µM, partner dose 2 µM) | 134
31 | COc1cc(Nc2ncc(F)c(Nc3ccc4c(n3)NC(=O)C(C)(C)O4)n2)cc(OC)c1OC [Tamatinib] + CO[C@@H]1[C@H](N(C)C(=O)c2ccccc2)C[C@H]2O[C@]1(C)n1c3ccccc3c3c4c(c5c6ccccc6n2c5c31)C(=O)NC4 [Midostaurin] (first compound 2 µM, partner dose 0.4 µM) | 71.1
